Laboratory results taken from PMC4336329 (PLoS ONE, 2015).
The whole screen tested about 310,000 compounds, of which about 14,000 (4.5%) showed an effect of 50% or more. The effect is printed as a negative number. This is one part of the list.

molecular target: human ether-à-go-go-related gene (hERG) potassium channel (human, UniProt Q12809); assay: primary screen, population patch clamp on CHO cells stably expressing hERG
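Note: peak tail current of the secondary pulse compared with the same well before compound.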

Chain of human ether-à-go-go-related gene (hERG) potassium channel (Q12809 whole entry, looked up): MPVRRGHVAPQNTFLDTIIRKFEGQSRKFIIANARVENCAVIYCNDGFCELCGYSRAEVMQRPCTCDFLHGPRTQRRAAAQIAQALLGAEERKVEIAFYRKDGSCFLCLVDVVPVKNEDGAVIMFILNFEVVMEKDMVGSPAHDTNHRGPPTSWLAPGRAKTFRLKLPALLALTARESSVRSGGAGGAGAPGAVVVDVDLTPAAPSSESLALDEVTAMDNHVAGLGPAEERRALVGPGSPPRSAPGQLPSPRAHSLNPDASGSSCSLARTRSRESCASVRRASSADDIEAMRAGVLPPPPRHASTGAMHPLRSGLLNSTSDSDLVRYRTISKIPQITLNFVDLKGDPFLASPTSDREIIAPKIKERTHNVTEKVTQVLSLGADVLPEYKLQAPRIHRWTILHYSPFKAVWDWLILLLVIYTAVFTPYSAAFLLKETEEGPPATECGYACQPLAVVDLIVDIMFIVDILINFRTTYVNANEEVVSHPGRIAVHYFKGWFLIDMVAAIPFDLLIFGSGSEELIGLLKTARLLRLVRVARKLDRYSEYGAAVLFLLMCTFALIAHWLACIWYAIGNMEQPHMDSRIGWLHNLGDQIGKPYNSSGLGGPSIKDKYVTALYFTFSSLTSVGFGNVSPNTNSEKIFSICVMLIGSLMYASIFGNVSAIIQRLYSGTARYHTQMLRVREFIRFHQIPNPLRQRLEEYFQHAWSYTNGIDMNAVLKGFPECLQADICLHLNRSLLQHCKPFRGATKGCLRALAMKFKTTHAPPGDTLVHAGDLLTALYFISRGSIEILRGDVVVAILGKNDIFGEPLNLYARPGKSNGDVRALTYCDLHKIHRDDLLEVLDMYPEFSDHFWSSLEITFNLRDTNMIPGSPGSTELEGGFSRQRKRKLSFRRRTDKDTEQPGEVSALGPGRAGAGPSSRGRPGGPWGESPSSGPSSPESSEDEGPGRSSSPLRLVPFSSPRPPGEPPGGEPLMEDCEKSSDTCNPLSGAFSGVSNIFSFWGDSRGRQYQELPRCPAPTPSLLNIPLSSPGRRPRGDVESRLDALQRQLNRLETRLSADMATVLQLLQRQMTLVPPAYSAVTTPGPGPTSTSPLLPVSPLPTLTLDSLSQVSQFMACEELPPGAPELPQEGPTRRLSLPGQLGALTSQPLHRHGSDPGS

| SMILES | hERG current change (%, negative = inhibition) at 10uM |
| --- | --- |
| CCCOC(=O)C1C2C=CC3(CN(c4cccc(Cl)c4)C(=O)C13)O2 (stereo not shown) | -5.23% |
| COC(=O)c1c(C(=O)OC)c(-c2cccc(F)c2)n2c1CS(=O)C2 (stereo not shown) | 8.7% |
| Nc1ccn([C@H]2CS[C@@H](CO)O2)c(=O)n1 | 18% |
| C/C(=N\Nc1c(F)c(F)c(Br)c(F)c1F)c1ccncc1 | 16.4% |
| CCCn1nnc(NC(=O)Cc2ccc(Cl)cc2)n1 | -0.341% |
| Cc1cc(OCC(=O)N[C@@H](CSCc2ccccc2)C(=O)O)c2c(C)c(C)c(=O)oc2c1 | 11.1% |
| CN(Cc1ccccc1)C(=O)c1cccc(C(=O)N(C)Cc2ccccc2)c1 | -3.07% |
| COc1ccc(C2CC(c3ccccc3OC(=O)/C=C/c3ccccc3)=NN2C(C)=O)cc1 (stereo not shown) | 4.55% |
| O=C(O)C1CCCCC1C(=O)Nc1ccccc1F (stereo not shown) | 7.88% |
| N#CC(c1ccc(O)cc1)N1CCCCC1 (stereo not shown) | 3.97% |
| COc1ccccc1-c1nnc(SCc2nc3ccccc3s2)n1C | -17% |
| CC(C(=O)O)N1c2cccc3cccc(c23)S1(=O)=O (stereo not shown) | 4.58% |
| C/C(=N\NC(=O)c1ccc2ccccc2c1)c1cccs1 | 9.65% |
| O=[N+]([O-])c1ccccc1Sc1nccn1Cc1ccccc1 | -21.6% |
| CC(=O)N1CCN(C(=O)c2ccc3c(c2)OCCO3)CC1 | 10.9% |
| O=C(c1cncc(Br)c1)N1CCc2ccccc2C1 | -14.3% |
| COc1cccc(N2CCN(C(=O)CNC(=O)c3sc4ccccc4c3Cl)CC2)c1 | 3.15% |
| COc1ccc(NC(=O)c2cc(-c3ccc(C)o3)nc3ccccc23)cc1OC | 7.52% |
| O=C(NC(=S)Nc1ccccc1Cl)c1cnn2c(C(F)(F)F)cc(C(F)(F)F)nc12 | 11.5% |
| CC(C)CC(=O)Nc1ccc2oc(-c3cccnc3)nc2c1 | -3.14% |
| N#C/C(=C\c1cccc([N+](=O)[O-])c1)C(=O)Nc1cccnc1 | 21.3% |
| CCOC(=O)c1c(C)nc2sc3c(=O)n(-c4ccc(C(C)=O)cc4)nnc3c2c1-c1ccc(Cl)cc1 | 6.84% |

| SMILES | hERG current change (%, negative = inhibition) at 10uM |
| --- | --- |
| Cl.FC(F)(F)c1cccc(Nc2ncnc3ccccc23)c1 | -4.41% |
| CCOc1ccc(NC(=O)CN(C)CC(=O)Nc2cc(Cl)ccc2C#N)cc1OCC | -1.68% |
| COc1cc(C(=O)OCC(=O)Nc2ccc(C(C)=O)cc2)ccc1OCC(=O)N1CCOCC1 | 6.64% |
| CCOC(=O)CN(C(=O)CSc1nnc2c(n1)[nH]c1ccc(OC)cc12)c1ccc(F)cc1 | -23.4% |
| CN1C(=O)c2ccccc2NC(=O)[C@]12O[C@@H]2c1cccc(O)c1 | 6.76% |
| COc1ccc(CN2C(=O)c3cccnc3C2=O)cc1S(=O)(=O)NC(C)C | 15% |
| CCN(CC(=O)Nc1ccc(NC(C)=O)cc1)C(=O)CN1C(=O)C2CCCCC2C1=O (stereo not shown) | 7.85% |
| O=[N+]([O-])c1ccc(/C=C/C2=NN(c3ccccc3)C(c3ccco3)C2)cc1 (stereo not shown) | 27.5% |
| Cc1nn(Cc2ccccc2)c(C)c1NC(=O)c1cc2nc(-c3ccco3)cc(C(F)(F)F)n2n1 | -11.1% |
| Cc1cc(C)c2nc(N3CCC(C(=O)N4CCN(c5ncccn5)CC4)CC3)sc2c1 | -0.141% |
| COCCN1Cc2cccc(C(=O)Nc3ccc(S(=O)(=O)N4CCOCC4)cc3)c2C1=O | 27.3% |
| O=C1S/C(=C/c2ccccc2F)C(=O)N1CCN=C1NS(=O)(=O)c2ccccc21 | 12.6% |
| COc1ccc(-c2nnc(SCC(=O)Nc3ccc(C(=O)O)cc3)n2-c2ccc(Cl)cc2)cc1 | -1.64% |
| CN(C)S(=O)(=O)c1ccc2c(c1)C(CC(=O)O)OC2=O (stereo not shown) | 15.4% |
| COC(=O)C1=C(C)NC(=O)CC1c1ccccc1 (stereo not shown) | -6.97% |
| CCN(CC)C(=O)COc1ccc(-c2nnc(Nc3ccc(OC)c(C(=O)NC)c3)c3ccccc23)cc1 | 16.9% |
| CCCc1nc2ccccc2n1Cc1ccccc1OC | -14.1% |
| COCC(=O)N(Cc1ccco1)c1nnc(C2CCOC2)s1 (stereo not shown) | 9.58% |
| CCn1cc(C(=O)N(C)Cc2ccc(OC(F)F)cc2)c(=O)c2ccc(C)nc21 | -65.1% |
| CCn1cc(C(=O)NCc2ccccc2F)c(=O)c2ccc(C)nc21 | 19.1% |
| O=C(NCCN1C(=O)S/C(=C\c2cccc(Cl)c2Cl)C1=O)C1=COCCO1 | -43.9% |
